These results are taken from patent publication US20230122079A1 (Zymeworks, published 2023).

This experiment deals with IL12 receptors IL12Rβ1 and IL12Rβ2 (on CD8+ T cells) (human, UniProt P42701 24-662; Q99665 24-862). In words: cell-based or functional assay.

B1: 33507 (Briakinumab scFv-masked reduced-potency IL12 HetFc fusion, p35 F39S_Y40S_Y167S) (Fc fusion)
chain 1: [gap - human IgG1 Fc with changes]SADGGIWELKKDVYVVELDWYPDAPGEMVVLTCDTPEEDGITWTLDQSSEVLGSGKTLTIQVKEFGDAGQYTCHKGGEVLSHSLLLLHKKEDGIWSTDILKDQKEPKNKTFLRCEAKNYSGRFTCWWLTTISTDLTFSVKSSRGSSDPQGVTCGAATLSAERVRGDNKEYEYSVECQEDSACPAAEESLPIEVMVDAVHKLKYENYTSSFFIRDIIKPDPPKNLQLKPLKNSRQVEVSWEYPDTWSTPHSYFSLTFCVQVQGKSKREKKDRVFTDKTSATVICRKNASISVRAQDRYYSSSWSEWASVPCSGGGGSGGGGSGGGGSNLPVATPDPGMFPCLHHSQNLLRAVSNMLQKARQTLESSPCTSEEIDHEDITKDKTSTVEACLPLELTKNESCLNSRETSFITNGSCLASRKTSFMMALCLSSIYEDLKMYQVEFKTMNAKLLMDPKRQIFLDQNMLAVIDELMQALNFNSETVPQKSSLEEPDFSKTKIKLCILLHAFRIRAVTIDRVMSYLNAS
chain 2: EPKSSDKTHTCPPCPAPEAAGGPSVFLFPPKPKDTLMISRTPEVTCVVVSVSHEDPEVKFNWYVDGVEVHNAKTKPREEQYNSTYRVVSVLTVLHQDWLNGKEYKCKVSNKALPAPIEKTISKAKGQPREPQVYVLPPSRDELTKNQVSLLCLVKGFYPSDIAVEWESNGQPENNYLTWPPVLDSDGSFFLYSKLTVDKSRWQQGNVFSCSVMHEALHNHYTQKSLSLSPGGGGGSGGGGSMSGRSANAGGGGSGGGGSQVQLVESGGGVVQPGRSLRLSCAASGFTFSSYGMHWVRQAPGKGLEWVAFIRYDGSNKYYADSVKGRFTISRDNSKNTLYLQMNSLRAEDTAVYYCKTHGSHDNWGQGTMVTVSSGGGGSMSGRSANAGGGGSGGGGSQSVLTQPPSVSGAPGQRVTISCSGSRSNIGSNTVKWYQQLPGTAPKLLIYYNDQRPSGVPDRFSGSKSGTSASLAITGLQAEDEADYYCQSYDRYTHPALLFGTGTKVTVL
Regarding B1, the “Fold Change in Potency compared to corresponding non-masked reduced-potency IL12 variant v33495 (Masked Variant EC50/Non-masked Variant EC50); IFNγ production by CD8T cells” value is 132 fold and the “Fold Change in Potency compared to parental non-masked WT IL12 variant v30806 (Variant EC50/Parental Variant EC50); IFNγ production by CD8T cells” value stood at 52000 fold.

B2: 33510 (Briakinumab scFv-masked reduced-potency IL12 HetFc fusion, p40 D41S_E45R_K58S_E59S_K195D) (Fc fusion)
chain 1: [gap - human IgG1 Fc with changes]SADGGIWELKKDVYVVELDWYPDAPGEMVVLTCDTPEEDGITWTLSQSSRVLGSGKTLTIQVSSFGDAGQYTCHKGGEVLSHSLLLLHKKEDGIWSTDILKDQKEPKNKTFLRCEAKNYSGRFTCWWLTTISTDLTFSVKSSRGSSDPQGVTCGAATLSAERVRGDNKEYEYSVECQEDSACPAAEESLPIEVMVDAVHDLKYENYTSSFFIRDIIKPDPPKNLQLKPLKNSRQVEVSWEYPDTWSTPHSYFSLTFCVQVQGKSKREKKDRVFTDKTSATVICRKNASISVRAQDRYYSSSWSEWASVPCSGGGGSGGGGSGGGGSNLPVATPDPGMFPCLHHSQNLLRAVSNMLQKARQTLEFYPCTSEEIDHEDITKDKTSTVEACLPLELTKNESCLNSRETSFITNGSCLASRKTSFMMALCLSSIYEDLKMYQVEFKTMNAKLLMDPKRQIFLDQNMLAVIDELMQALNFNSETVPQKSSLEEPDFYKTKIKLCILLHAFRIRAVTIDRVMSYLNAS
chain 2: B1 chain 2
Consider B2, for which the “Fold Change in Potency compared to corresponding non-masked reduced-potency IL12 variant v33498 (Masked Variant EC50/Non-masked Variant EC50); IFNγ production by CD8T cells” value was determined as 329 fold and the “Fold Change in Potency compared to parental non-masked WT IL12 variant v30806 (Variant EC50/Parental Variant EC50); IFNγ production by CD8T cells” value came to 5560 fold.

B3: 33511 (Briakinumab scFv-masked reduced-potency IL12 HetFc fusion, p40 K99S_E100S_R159S) (Fc fusion)
chain 1: [gap - human IgG1 Fc with changes]SADGGIWELKKDVYVVELDWYPDAPGEMVVLTCDTPEEDGITWTLDQSSEVLGSGKTLTIQVKEFGDAGQYTCHKGGEVLSHSLLLLHKKEDGIWSTDILKDQSSPKNKTFLRCEAKNYSGRFTCWWLTTISTDLTFSVKSSRGSSDPQGVTCGAATLSAERVSGDNKEYEYSVECQEDSACPAAEESLPIEVMVDAVHKLKYENYTSSFFIRDIIKPDPPKNLQLKPLKNSRQVEVSWEYPDTWSTPHSYFSLTFCVQVQGKSKREKKDRVFTDKTSATVICRKNASISVRAQDRYYSSSWSEWASVPCSGGGGSGGGGSGGGGSNLPVATPDPGMFPCLHHSQNLLRAVSNMLQKARQTLEFYPCTSEEIDHEDITKDKTSTVEACLPLELTKNESCLNSRETSFITNGSCLASRKTSFMMALCLSSIYEDLKMYQVEFKTMNAKLLMDPKRQIFLDQNMLAVIDELMQALNFNSETVPQKSSLEEPDFYKTKIKLCILLHAFRIRAVTIDRVMSYLNAS
chain 2: B1 chain 2
In the case of B3, the “Fold Change in Potency compared to corresponding non-masked reduced-potency IL12 variant v33499 (Masked Variant EC50/Non-masked Variant EC50); IFNγ production by CD8T cells” value came out at 67 fold and the “Fold Change in Potency compared to parental non-masked WT IL12 variant v30806 (Variant EC50/Parental Variant EC50); IFNγ production by CD8T cells” value was found to be 195 fold.
